Assay results taken from PubChem BioAssay AID2675 (National Center for Advancing Translational Sciences (NCATS), 2010).
The campaign covered roughly 280,000 compounds. About 100 (0.036%) were called active. The shares of active, inactive and inconclusive entries below differ from those in the screen. Calls come from the whole dose curve; as a rule, active = well fitted inhibition curve with a large enough effect in the signal ratio, with a control signal flat (not every such curve was filed as active); inconclusive = small, poorly fitted or top-dose-only effect, or effect the other way, or a change in a side signal; inactive = no such curve, though single readings can be large or run the other way; the % refers to the signal ratio. Where the call is inconclusive, the potency comes from a doubtful curve fit. “Side channel” marks fits to a control or component signal instead of the main read-out.

biological target: Muscleblind-like protein 1 (Homo sapiens) (UniProt Q9NR56); assay: qHTS Assay for Inhibitors of MBNL1-poly(CUG) RNA binding; conditions: TR-FRET MBNL1-His/biotin-(CUG)12 binding, 665/545 ratio; activity change, negative = inhibition: at 57.5 µM (top of the series)
Method in brief: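 His-tagged MBNL1 binding to biotinylated (CUG)12 RNA was measured by TR-FRET using terbium anti-His antibody (0.055 ng/ul final) and streptavidin-XL665 (5 nM final). Compounds were titrated 92 nM to 58 uM; 60 min at room temperature.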
% is set by controls: 0 for no effect and ±100 for the full control effect; potency is the fitted concentration of half-maximal effect; tags give direction and shape of the fitted curve or compound fluorescence and quenching.

UniProt Q9NR56, sequence (Q9NR56 whole entry, looked up): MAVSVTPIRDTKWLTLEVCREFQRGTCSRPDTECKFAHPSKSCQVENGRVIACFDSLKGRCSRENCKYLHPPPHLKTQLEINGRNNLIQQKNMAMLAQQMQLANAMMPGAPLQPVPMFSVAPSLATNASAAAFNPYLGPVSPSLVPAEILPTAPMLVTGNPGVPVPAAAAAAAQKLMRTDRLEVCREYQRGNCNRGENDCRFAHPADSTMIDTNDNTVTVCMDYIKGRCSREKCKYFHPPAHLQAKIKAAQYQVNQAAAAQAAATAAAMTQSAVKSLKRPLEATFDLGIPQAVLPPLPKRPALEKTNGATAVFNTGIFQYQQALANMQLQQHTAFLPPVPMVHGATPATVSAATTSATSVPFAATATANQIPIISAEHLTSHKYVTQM

Q: Which Potency does the source give for N#CCc1nn2c(-c3ccccc3)ccnc2c1C#N here?
A: inconclusive: 14.1 µM [quencher, side channel, partial curve]

Q: How did the Potency turn out when O=[N+]([O-])c1nn(-c2ccc(Cl)cc2)n(O)c1=NCc1ccccc1Cl was run?
A: inconclusive: 11.2 µM [quencher, side channel, partial curve]

Q: For CC1(C)OC(=O)C(=NNc2ccc(C(=O)O)cc2)C(=O)O1, which Potency is on record?
A: inconclusive: 12.6 µM [quencher, side channel, partial curve]

Q: With CCOC(=O)C1=C(C)NC2=C(C(=O)c3ccccc32)C1c1cccnc1 (configuration not stated) as the compound, how does the Potency read?
A: inconclusive: 3.55 µM [quencher, side channel, full curve]

Q: How did the Potency turn out when Cc1nc2c(-c3ccc(Cl)cc3)cnn2c(N)c1-c1ccc(F)cc1 was run?
A: inactive

Q: Which Potency does the source give for O=C(CCC(=O)NNC(=S)Nc1ccccc1)NCc1ccccc1 here?
A: inactive

Q: Which Potency does the source give for CCCOc1cccc(C2C(C(=O)c3ccc(C)o3)=C(O)C(=O)N2c2nc(C)c(C(C)=O)s2)c1 (configuration not stated) here?
A: inactive

Q: How did the Potency turn out when CCOC(=O)N1CCC(NC(=O)CCN2C(=O)COc3ccccc32)CC1 was run?
A: inactive

Q: With COc1cc2cc(C(c3nnnn3Cc3ccc(F)cc3)N3CCCCCC3)c(=O)[nH]c2cc1OC (configuration not stated) as the compound, how does the Potency read?
A: inconclusive: 14.1 µM [quencher, side channel, partial curve]

Q: COc1ccc(-c2cc(=O)oc3cc(OCC(=O)NCCCn4ccnc4)ccc23)cc1 was tested. Which Potency did it give?
A: inconclusive: 10 µM [quencher, side channel, partial curve]

Q: Cn1c(/C=C/c2cccc([N+](=O)[O-])c2)c([N+](=O)[O-])c(=O)n(C)c1=O was tested. Which Potency did it give?
A: inconclusive: 25.1 µM [quencher, side channel, single point]

Q: Which Potency does the source give for Cc1ccc(-n2ncc3c(=O)[nH]c(SCC(=O)N4CCN(c5ccccc5)CC4)nc32)cc1 here?
A: inconclusive: 12.6 µM [fluorescent, side channel, partial curve]

Q: For O=c1oc(-c2cccc([N+](=O)[O-])c2)nc2ccccc12, which Potency is on record?
A: inconclusive: 25.1 µM [quencher, side channel, partial curve]

Q: How did the Potency turn out when O=C(CSc1ccc(-c2cccs2)nn1)Nc1ccccc1F was run?
A: inconclusive: 17.8 µM [quencher, side channel, single point]

Q: Which Potency does the source give for Cc1cc(=O)[nH]c(SCn2nnc3ccccc3c2=O)n1 here?
A: inactive

Q: How did the Potency turn out when COC(=O)c1sc2cc(C(F)(F)F)cnc2c1-c1cccnc1 was run?
A: inactive

Q: CC(C)(C)c1ccc(C(=O)NNc2cc(N3CCCCC3)nc(N3CCCCC3)n2)cc1 was tested. Which Potency did it give?
A: inconclusive: 0.631 µM [quencher, side channel, single point]

Q: For CNC(=O)C(Sc1nc(C)nc2c1oc1ccccc12)C(C)=O (configuration not stated), which Potency is on record?
A: inconclusive: 14.1 µM [quencher, side channel, partial curve]

Q: How did the Potency turn out when Cc1cc(=O)[nH]c(N/N=C/c2c(C)nn(-c3ccccc3)c2C)n1 was run?
A: inactive

Q: With O=C(Nc1ccc(O)cc1)c1ccc2c(c1)C(=O)N(N1C(=O)c3ccccc3C1=O)C2=O as the compound, how does the Potency read?
A: inconclusive: 22.4 µM [quencher, single point]

Q: How did the Potency turn out when COc1cccc(CN2CCN(c3ccc(F)cc3)C2=O)c1 was run?
A: inactive

Q: For O=C(NNc1ncc(C(F)(F)F)cc1Cl)c1ccc(Cl)c(Cl)c1, which Potency is on record?
A: inactive

Q: With COc1ccccc1NC(=S)N(CCc1c(C)[nH]c2ccccc12)Cc1cccs1 as the compound, how does the Potency read?
A: inactive

Q: For O=C(NCc1ccccc1)c1nc(S(=O)(=O)Cc2ccccc2)ncc1Cl, which Potency is on record?
A: inactive

Q: How did the Potency turn out when O=C(Cn1c(=O)c2cccn2c2ccc(F)cc21)NCCCN1CCN(c2ccccc2F)CC1 was run?
A: inactive

Q: With Cc1ccccc1OCCn1cnc2cc([N+](=O)[O-])ccc2c1=O as the compound, how does the Potency read?
A: inconclusive: 15.8 µM [quencher, side channel, partial curve]

Q: O=[N+]([O-])c1ccc(NC(=S)N2CCCC2)cc1 was tested. Which Potency did it give?
A: inconclusive: 3.55 µM [quencher, side channel, full curve]

Q: With Cc1ccc(/C=C2\SC(=S)N(CC(=O)Nc3cccnc3)C2=O)cc1 as the compound, how does the Potency read?
A: inactive

Q: Which Potency does the source give for O=C(NCCO)c1ccc2c(c1)S(=O)(=O)c1ccccc1C2=O here?
A: inconclusive: 12.6 µM [quencher, side channel, partial curve]

Q: COC(CNC(=O)c1coc2nc3ccccc3nc12)OC was tested. Which Potency did it give?
A: inconclusive: 15.8 µM [quencher, side channel, partial curve]

Q: Which Potency does the source give for O=C(CCSc1ccc(Cl)cc1)c1cccs1 here?
A: inactive

Q: Which Potency does the source give for NC(=O)C1CC(=O)N(c2ccc(OCc3ccc([N+](=O)[O-])cc3)cc2)C1 (configuration not stated) here?
A: inconclusive: 12.6 µM [quencher, side channel, partial curve]

Q: For Cc1ccc(NC(=O)CN2CCN(S(=O)(=O)c3cccs3)CC2)cc1S(=O)(=O)N(C)C, which Potency is on record?
A: inactive

Q: With CC(=O)Oc1c(Sc2ccccc2[N+](=O)[O-])c(C)nn1C(C)(C)C as the compound, how does the Potency read?
A: inactive

Q: Which Potency does the source give for CCOC(=O)CCC(=O)NCc1ccc2c(c1)cc(C)n2C here?
A: inconclusive: 31.6 µM [quencher, side channel, partial curve]

Q: How did the Potency turn out when Cc1ccc2nc(-c3ccccn3)c(NC3CCCC3)n2c1 was run?
A: inactive

Q: With O=[n+]1c2c(n([O-])c3ccccc31)CCC2 as the compound, how does the Potency read?
A: inconclusive: 15.8 µM [quencher, side channel, partial curve]

Q: For COC(=O)c1ccc(NC(=O)CC2C(=O)N(C)C(=S)N2Cc2ccc(S(N)(=O)=O)cc2)cc1 (configuration not stated), which Potency is on record?
A: inconclusive: 22.4 µM [quencher, side channel, single point]

Q: For COc1cc(/C=N/NC(=O)c2ccc(CSc3nncn3C)cc2)cc(OC)c1O, which Potency is on record?
A: inconclusive: 20 µM [quencher, side channel, partial curve]

Q: CC(Oc1ncnc2ccccc12)C(=O)Nc1cccc(S(=O)(=O)N2CCOCC2)c1 (configuration not stated) was tested. Which Potency did it give?
A: inactive

Q: How did the Potency turn out when O=[N+]([O-])c1cccc(-c2nn(-c3ccccc3)cc2CO)c1 was run?
A: inconclusive: 14.1 µM [quencher, side channel, partial curve]

Q: How did the Potency turn out when NC(=O)NOCc1ncc(C(F)(F)F)cc1Cl was run?
A: inactive

Q: Cc1nn(C)cc1CN(C)S(=O)(=O)c1cccc([N+](=O)[O-])c1 was tested. Which Potency did it give?
A: inconclusive: 28.2 µM [quencher, side channel, partial curve]

Q: For COc1cccc(C(=O)OCC(=O)NCCNC(=O)COC(=O)c2cccc(OC)c2OC)c1OC, which Potency is on record?
A: inactive

Q: For COc1cc(Nc2ccccc2Cl)c([N+](=O)[O-])nc1[N+](=O)[O-], which Potency is on record?
A: inconclusive: 14.1 µM [quencher, partial curve]

Q: For COc1ccc(OCCCn2cccc2/C=C2/C(=N)N3OC(C)=CC3=NC2=O)cc1, which Potency is on record?
A: inconclusive: 14.1 µM [quencher, side channel, partial curve]

Q: Which Potency does the source give for Cc1ccc(C2=N/C(=C\c3ccc(OS(=O)(=O)c4ccc(C)cc4)cc3)C(=O)O2)cc1 here?
A: inconclusive: 7.08 µM [quencher, side channel, partial curve]

Q: Which Potency does the source give for COc1cc(CC(=O)NNC(=O)c2cc(C)oc2C)cc(OC)c1OC here?
A: inactive

Q: With COc1cccc(C2C(C#N)=C(N)OC(C(C)(C)C)=C2C#N)c1 (configuration not stated) as the compound, how does the Potency read?
A: inactive

Q: CCC(=O)Oc1ccc(C(=O)Nc2ccc([N+](=O)[O-])cc2)cc1 was tested. Which Potency did it give?
A: inconclusive: 4.47 µM [quencher, side channel, full curve]

Q: With CCOCC(=O)Nc1ccc([N+](=O)[O-])cc1OC as the compound, how does the Potency read?
A: inconclusive: 22.4 µM [quencher, side channel, partial curve]

Q: How did the Potency turn out when Brc1ccc(-c2csc(N/N=C/c3ccco3)n2)cc1 was run?
A: inactive

Q: How did the Potency turn out when Cc1ccc(-c2cc(-c3n[nH]c(=S)o3)c3ccccc3n2)cc1 was run?
A: inactive

Q: How did the Potency turn out when COc1cc(OC)c2c(-c3ccccc3)cc(=O)oc2c1C(CCN1CCCC(C)C1)c1ccc2c(c1)OCO2 (configuration not stated) was run?
A: inactive

Q: Which Potency does the source give for COc1ccc(CNc2cccc(F)c2)cc1Br here?
A: inactive

Q: How did the Potency turn out when O=Nc1c(-c2ccccc2)cc2ccccn12 was run?
A: inconclusive: 2.82 µM [quencher, side channel, partial curve]

Q: NC(=O)c1nsc(C(=O)N(CC(=O)NCc2ccccc2)c2cccc(F)c2)c1N was tested. Which Potency did it give?
A: inconclusive: 28.2 µM [quencher, side channel, partial curve]

Q: For O=C(O)Cc1ccc(C(=O)c2cccs2)s1, which Potency is on record?
A: inconclusive: 12.6 µM [quencher, side channel, partial curve]

Q: Cc1ccc(OCC(O)CN2CCN(c3ccc(C)cc3)CC2)cc1 (configuration not stated) was tested. Which Potency did it give?
A: inactive

Q: For O=C(N/N=C/C=C/c1ccccc1[N+](=O)[O-])c1ccncc1, which Potency is on record?
A: inconclusive: 10 µM [quencher, side channel, partial curve]

Q: Which Potency does the source give for O=c1[nH]c(N2CCN(Cc3ccccc3)CC2)nc2c1CCC2 here?
A: inactive

Q: Which Potency does the source give for COc1ccc2nc(NC(=O)C(NS(=O)(=O)c3cccc4nsnc34)C(C)C)sc2c1 (configuration not stated) here?
A: inconclusive: 7.94 µM [quencher, side channel, partial curve]

Q: How did the Potency turn out when Cc1ccc(/C=N/NC(=O)c2ccccn2)s1 was run?
A: inconclusive: 3.55 µM [quencher, side channel, partial curve]

Q: Which Potency does the source give for Cc1nnc(N2C(=O)c3cccc4c([N+](=O)[O-])ccc(c34)C2=O)s1 here?
A: inconclusive: 3.16 µM [quencher, full curve, poor fit]

Q: With Cc1c(C(=O)N(C)C)sc2nc(-c3ccccn3)[nH]c(=O)c12 as the compound, how does the Potency read?
A: inconclusive: 39.8 µM [quencher, single point]

Q: COc1ccc(-c2nnc(Nc3ccc(S(=O)(=O)Nc4nccs4)cc3)c3ccccc23)cc1 was tested. Which Potency did it give?
A: inconclusive: 39.8 µM [inhibitor, partial curve]

Q: How did the activity change, negative = inhibition turn out when Cc1cccc(NC(NC(=O)c2ccccn2)C(Cl)(Cl)Cl)c1 (configuration not stated) was run?
A: inconclusive: -16.4% [phenotype inactive]
